Only a selection was taken, and the strongest signals are over-represented in it overall.
Each substance was assayed on Neu5Ac(a2-3)Gal(b1-4)GlcNAc(b1-2)Man(a1-3)[GlcNAc(b1-2)Man(b1-4)GlcNAc(b1-2)Man(a1-6)]Man(b1-4)GlcNAc(b1-4)GlcNAc (assay: glycan array binding signal (z-score within array); higher = stronger binding). Details: glycan notation: IUPAC condensed, linker removed.
Procedure, shortened: (§1)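 The binding signal is a Z-score computed within each array and averaged over linkers. Arrays of the same protein sequence at different concentrations or buffers were also averaged together. Data originate from 3228 arrays in the Consortium for Functional Glycomics database, kept only where the protein sequence was available.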

Substance | glycan array binding signal (z-score)
M-Ficolin A256V (Homo sapiens) (chain not printed) | 3.48
H-Ficolin (Homo sapiens) (chain not printed) | -0.25
M-Ficolin (Homo sapiens) (chain not printed) | 4.98

These substances were tested on Neu5Ac(a2-3)Gal(b1-4)GlcNAc(b1-3)Gal(b1-3)GlcNAc in the same assay as above. Details: glycan notation: IUPAC condensed, linker removed.
Procedure, shortened: as §1

Substance | glycan array binding signal (z-score)
Meso764 (Homo sapiens) (chain not printed) | -0.729
M-Ficolin A256V (Homo sapiens) (chain not printed) | -0.123
H-Ficolin (Homo sapiens) (chain not printed) | 0.316

Each substance was assayed on Neu5Ac(a2-3)Gal(b1-4)GlcNAc(b1-3)Gal(b1-4)GlcNAc(b1-3)Gal(b1-4)GlcNAc in the same assay as above. Details: glycan notation: IUPAC condensed, linker removed.
Procedure, shortened: as §1

Substance | glycan array binding signal (z-score)
Galectin-8 C-terminal CRD (Homo sapiens) (chain not printed) | 0.656
Angiogenin (Homo sapiens) (chain not printed) | -1.19
Gal 8 long (Homo sapiens) (chain not printed) | 0.976
FGF2 (chain not printed) | 0.008
M-Ficolin G221F A256V (Homo sapiens) (chain not printed) | 4.51

The substances below were run on Neu5Ac(a2-3)Gal(b1-4)GlcNAc(b1-3)Gal(b1-4)GlcNAc in the same assay as above. Details: glycan notation: IUPAC condensed, linker removed.
Procedure, shortened: as §1

Substance | glycan array binding signal (z-score)
Collectin K1 (Homo sapiens) (chain not printed) | -0.232
Meso764 (Homo sapiens) (chain not printed) | -0.444
MBP (Homo sapiens) (chain not printed) | -0.382
M-Ficolin G221F A256V (Homo sapiens) (chain not printed) | 4.91

What follows are substances tested on Neu5Ac(a2-3)Gal(b1-4)GlcNAc(b1-3)Gal(b1-4)[Fuc(a1-3)]GlcNAc in the same assay as above. Details: glycan notation: IUPAC condensed, linker removed.
Procedure, shortened: as §1

Substance | glycan array binding signal (z-score)
NCAM1 (Homo sapiens) (chain not printed) | -0.311
Angiogenin (Homo sapiens) (chain not printed) | 1.96
MBP (Homo sapiens) (chain not printed) | -0.27

What follows are substances tested on Neu5Ac(a2-3)Gal(b1-4)GlcNAc(b1-6)[Gal(b1-3)]GalNAc in the same assay as above. Details: glycan notation: IUPAC condensed, linker removed.
Procedure, shortened: as §1

Substance | glycan array binding signal (z-score)
Serum Amyloid P component (Homo sapiens) (chain not printed) | 1.23
M-Ficolin G221F A256V (Homo sapiens) (chain not printed) | -0.117
VWF (Homo sapiens) (chain not printed) | -0.427

Each substance was assayed on Neu5Ac(a2-3)Gal(b1-4)GlcNAc in the same assay as above. Details: glycan notation: IUPAC condensed, linker removed.
Procedure, shortened: as §1

Substance | glycan array binding signal (z-score)
Collectin K1 (Homo sapiens) (chain not printed) | -0.161
NCAM1 (Homo sapiens) (chain not printed) | -0.275
M-Ficolin Y271F (Homo sapiens) (chain not printed) | -0.031
M-Ficolin G221F A256V (Homo sapiens) (chain not printed) | 2.23

Reference: the supplement of paper PMC8728848
